According to ChEMBL document CHEMBL5606458, “ASAP - ZIKV NS2B-NS3 protease fluorescence single point” (2024):
About 160 (5.9%) of roughly 2,700 compounds showed an effect of 50% or more. Some of the results follow.

Target: Nonstructural protein 3 (Zika virus) (UniProt A0A024AXB9)
[1] = PRVABC59, Concentration 15.0 uM, Number of replicates 1.0
[2] = PRVABC59, Concentration 50.0 uM, Number of replicates 1.0
[3] = PRVABC59, Concentration 10.0 uM, Number of replicates 1.0

UniProt A0A024AXB9, sequence (A0A024AXB9 as listed by the source): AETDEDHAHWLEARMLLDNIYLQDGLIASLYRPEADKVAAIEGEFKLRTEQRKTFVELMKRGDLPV

O=C(c1cc(Cl)ccc1NS(=O)(=O)c1ccc(Oc2ccccc2Cl)cc1)N1CCC(n2c(=O)[nH]c3ccccc32)CC1 was tested, and the inhibition [1] was 15.6%.

Work on O=C(NCc1ccc([N+](=O)[O-])cc1)c1cc(Cl)ccc1NS(=O)(=O)c1ccc(Oc2ccccc2Cl)cc1 yielded an inhibition [1] of 41.7%.

Compound O=C(N[C@@H](Cc1ncc[nH]1)c1ccccc1)c1ccc2c(c1)B(O)OC2 has an inhibition (PRVABC59, Concentration 49.5 uM, Number of replicates 2.0, Standard deviation 0.6415056750946746 %) of -1.31%, an inhibition (PRVABC59, Concentration 99.01 uM, Number of replicates 2.0, Standard deviation 0.7886024964496671 %) of -0.838% and an inhibition (PRVABC59, Concentration 198.0 uM, Number of replicates 2.0, Standard deviation 0.8805381125294807 %) of 1.82%.

For CCN1CCOC[C@H]1C(=O)Nc1cc(Cl)cc(C(=O)NC(C)(C)CO)c1, the inhibition (PRVABC59, Concentration 49.5 uM, Number of replicates 2.0, Standard deviation 1.425535849610213 %) was -1.8%, the inhibition (PRVABC59, Concentration 99.01 uM, Number of replicates 2.0, Standard deviation 1.345541763339264 %) was -2.76% and the inhibition (PRVABC59, Concentration 198.0 uM, Number of replicates 2.0, Standard deviation 3.0049064318797343 %) was -3.73%.

O=C1CC2(CCN(C(=O)c3cc(Cl)ccc3NS(=O)(=O)c3ccc(Oc4ccccc4Cl)cc3)CC2)Oc2ccccc21 showed an inhibition [1] of 8.92%.

CN1CCN(C(=O)C2CCN(C(=O)C3CCN(c4ccc(C=O)cc4)CC3)CC2)CC1 was tested, and the inhibition [2] was 21.1%.

Compound CN1CCN2CCN(C(=O)c3cc(Cl)ccc3NS(=O)(=O)c3ccc(Oc4ccccc4Cl)cc3)C[C@H]2C1 has an inhibition [1] of 11.4%.

Cc1ccc2nc(NC(=O)c3cc(Cl)ccc3NS(=O)(=O)c3ccc(Oc4ccccc4Cl)cc3)sc2c1 gave an inhibition [1] of 24.8%.

Cc1cc(I)ccc1NC(=O)c1cc(Cl)ccc1NS(=O)(=O)c1ccc(Oc2ccccc2Cl)cc1 gave an inhibition [1] of 20.7%.

CC(C)(CO)NC(=O)c1cc(Cl)cc(NC(=O)c2cncc(N3CCOCC3)c2)c1 showed an inhibition (PRVABC59, Concentration 49.5 uM, Number of replicates 2.0, Standard deviation 1.0632470189008745 %) of 1.43%, an inhibition (PRVABC59, Concentration 99.01 uM, Number of replicates 2.0, Standard deviation 2.7807996686423335 %) of 5.47% and an inhibition (PRVABC59, Concentration 198.0 uM, Number of replicates 2.0, Standard deviation 2.856881979462441 %) of 10.3%.

Work on Cc1cc(CO)c2cccc(NC(=O)c3cc(C(=O)O)[nH]n3)c2n1 yielded an inhibition (PRVABC59, Concentration 49.95 uM, Number of replicates 2.0, Standard deviation 8.576009209154032 %) of -3.08% and an inhibition (PRVABC59, Concentration 99.9 uM, Number of replicates 2.0, Standard deviation 1.7362781995069096 %) of 11.3%.

In the case of Cc1cc(CO)c2cccc(NC(=O)c3cnn(Cc4c(C)noc4C)c3)c2n1, the inhibition (PRVABC59, Concentration 49.95 uM, Number of replicates 2.0, Standard deviation 2.012275994043529 %) is reported as -0.018% and the inhibition (PRVABC59, Concentration 99.9 uM, Number of replicates 2.0, Standard deviation 1.7312603643105966 %) is reported as 9.24%.

Compound COc1cc(CS(=O)(=O)[C@H]2CCOC2)nc(N2CCNCC2)n1 has an inhibition (PRVABC59, Concentration 49.5 uM, Number of replicates 2.0, Standard deviation 1.5958215087676872 %) of 1.88%, an inhibition (PRVABC59, Concentration 99.01 uM, Number of replicates 2.0, Standard deviation 0.03613889954936311 %) of 2.15% and an inhibition (PRVABC59, Concentration 198.0 uM, Number of replicates 2.0, Standard deviation 0.22444208356415332 %) of 4.22%.

CC1(C)CCC(CN2CCN(C(=O)C3CCN(c4ccc(C=O)cc4)CC3)CC2)=C(c2ccc(Cl)cc2)C1 showed an inhibition [2] of 25.8%.

Work on CS(=O)(=O)N1CCC(C(=O)Nc2nc3c(F)cccc3s2)CC1 yielded an inhibition (PRVABC59, Concentration 49.5 uM, Number of replicates 2.0, Standard deviation 3.126747618274968 %) of 2.65%, an inhibition (PRVABC59, Concentration 99.01 uM, Number of replicates 2.0, Standard deviation 1.0594119507143227 %) of 2.8% and an inhibition (PRVABC59, Concentration 198.0 uM, Number of replicates 2.0, Standard deviation 0.41034660613649154 %) of 3.1%.

O=C(NC(c1ccccc1)c1ccccc1)c1cc(Cl)ccc1NS(=O)(=O)c1ccc(Oc2ccccc2Cl)cc1 gave an inhibition [1] of 55%.

In the case of O=C(c1cc(Cl)ccc1NS(=O)(=O)c1ccc(Oc2ccccc2Cl)cc1)N1CCN(c2ccc(O)cc2)CC1, the inhibition [1] is reported as 34%.

Compound CC(C)C(=O)N1CCN(C(=O)c2cc(Cl)ccc2NS(=O)(=O)c2ccc(Oc3ccccc3Cl)cc2)CC1 has an inhibition [1] of 2.52%.

Work on Nc1ccc(Br)c2ncccc12 yielded an inhibition (PRVABC59, Concentration 49.95 uM, Number of replicates 2.0, Standard deviation 11.698119789008983 %) of 0.823% and an inhibition (PRVABC59, Concentration 99.9 uM, Number of replicates 2.0, Standard deviation 11.331169601148035 %) of 6.58%.

CSCC[C@H](NC(=O)OC(C)(C)C)C(=O)N1CCC[C@H]1C(=O)NCc1ccncc1 gave an inhibition (PRVABC59, Concentration 49.5 uM, Number of replicates 2.0, Standard deviation 0.6637967639504498 %) of -0.231%, an inhibition (PRVABC59, Concentration 99.01 uM, Number of replicates 2.0, Standard deviation 3.044759606747817 %) of -1.27% and an inhibition (PRVABC59, Concentration 198.0 uM, Number of replicates 2.0, Standard deviation 2.9620569954041636 %) of -0.452%.

With CC(C)(CO)NC(=O)c1cc(Cl)cc(NC(=O)c2cc(-c3ccc(Cl)cc3)n[nH]2)c1 the inhibition (PRVABC59, Concentration 49.5 uM, Number of replicates 2.0, Standard deviation 0.03613898384306013 %) was 1.66%, the inhibition (PRVABC59, Concentration 99.01 uM, Number of replicates 2.0, Standard deviation 0.34807548039861586 %) was 1.53% and the inhibition (PRVABC59, Concentration 198.0 uM, Number of replicates 2.0, Standard deviation 0.2225400542427734 %) was -0.261%.

COCCCN1CCC(NC(=O)C2CCN(c3ccc(C=O)cc3)CC2)CC1 showed an inhibition [2] of 28.2%.

Compound O=C(NCCc1ccccc1[N+](=O)[O-])c1cc(Cl)ccc1NS(=O)(=O)c1ccc(Oc2ccccc2Cl)cc1 has an inhibition [1] of 27.9%.

Work on O=C(Nc1nc(-c2ccc(Cl)c(Cl)c2)cs1)c1cc(Cl)ccc1NS(=O)(=O)c1ccc(Oc2ccccc2Cl)cc1 yielded an inhibition [1] of 26.5%.

In the case of C[C@H](NC(=O)c1cc(Cl)ccc1NS(=O)(=O)c1ccc(Oc2ccccc2Cl)cc1)C12CC3CC(CC(C3)C1)C2, the inhibition [1] is reported as 25.1%.

CC(C)(C)[C@H](NC(=O)C1CCN(c2ccc(C=O)cc2)CC1)c1ccccc1 showed an inhibition [3] of 20.8%.

With O=Cc1ccc(N2CCC(C(=O)NCc3ccccc3OC(F)(F)F)CC2)cc1 the inhibition [3] was 23%.

With O=Cc1ccc(N2CCC(C(=O)NCc3noc(-c4cccs4)n3)CC2)cc1 the inhibition [3] was 22.6%.

Cc1nn(Cc2cn(-c3ccccc3)nn2)cc1C1CCNCC1 gave an inhibition (PRVABC59, Concentration 49.5 uM, Number of replicates 2.0, Standard deviation 0.6133583009007375 %) of -0.435%, an inhibition (PRVABC59, Concentration 99.01 uM, Number of replicates 2.0, Standard deviation 1.23031396538442 %) of 1.69% and an inhibition (PRVABC59, Concentration 198.0 uM, Number of replicates 2.0, Standard deviation 0.9515146698272816 %) of 6.21%.

Compound N#Cc1ccc(N2CCN(C(=O)C3CCN(c4ccc(C=O)cc4)CC3)CC2)nc1 has an inhibition [2] of 23.5%.

O=C(NCC(c1ccccc1)c1ccccc1)c1cc(Cl)ccc1NS(=O)(=O)c1ccc(Oc2ccccc2Cl)cc1 gave an inhibition [1] of 12.2%.

O=C(NCc1noc(-c2cccs2)n1)c1cc(Cl)ccc1NS(=O)(=O)c1ccc(Oc2ccccc2Cl)cc1 showed an inhibition [1] of 51.9%.

In the case of O=Cc1ccc(N2CCC(C(=O)NCc3ccc(Cl)c(C(F)(F)F)c3)CC2)cc1, the inhibition [3] is reported as 11.8%.

O=C(c1cc(Cl)ccc1NS(=O)(=O)c1ccc(Oc2ccccc2Cl)cc1)N1CC2C[C@H]3CC1C[C@H](C2)C3 showed an inhibition [1] of 26.1%.

Work on Cc1cnccc1NC(=O)c1coc2c1C(=O)NCCC2 yielded an inhibition (PRVABC59, Concentration 49.5 uM, Number of replicates 2.0, Standard deviation 2.0082804728046963 %) of 0.123%, an inhibition (PRVABC59, Concentration 99.01 uM, Number of replicates 2.0, Standard deviation 1.1195703761085367 %) of -0.899% and an inhibition (PRVABC59, Concentration 198.0 uM, Number of replicates 2.0, Standard deviation 0.46580663256761273 %) of 0.832%.

For Cc1cc(CO)c2cccc(Cc3cccc(C(=O)N4C[C@H](O)C[C@H]4C(=O)O)c3)c2n1, the inhibition (PRVABC59, Concentration 49.95 uM, Number of replicates 2.0, Standard deviation 0.9333357225401687 %) was -4.13% and the inhibition (PRVABC59, Concentration 99.9 uM, Number of replicates 2.0, Standard deviation 0.5138590553450048 %) was -0.701%.

Compound COCCCN(Cc1ccccc1)C(=O)c1cc(Cl)ccc1NS(=O)(=O)c1ccc(Oc2ccccc2Cl)cc1 has an inhibition [1] of 22.5%.

CCn1ccnc(NC[C@H](c2ccccc2)c2c[nH]c3ccccc23)c1=O gave an inhibition (PRVABC59, Concentration 49.5 uM, Number of replicates 2.0, Standard deviation 3.1091602020067053 %) of 8.63%, an inhibition (PRVABC59, Concentration 99.01 uM, Number of replicates 2.0, Standard deviation 11.310073080419604 %) of -1.99% and an inhibition (PRVABC59, Concentration 198.0 uM, Number of replicates 2.0, Standard deviation 0.369886516649852 %) of -0.815%.

O=C(OCc1ccccc1)N1C[C@@H](O)[C@H](c2c[nH]c3ccccc23)C1 showed an inhibition (PRVABC59, Concentration 49.5 uM, Number of replicates 2.0, Standard deviation 3.519576771911725 %) of 6.6%, an inhibition (PRVABC59, Concentration 99.01 uM, Number of replicates 2.0, Standard deviation 2.873595059358345 %) of 10.9% and an inhibition (PRVABC59, Concentration 198.0 uM, Number of replicates 2.0, Standard deviation 0.8741263124655184 %) of 12.2%.
